Hit rate of the full screen: of about 310,000 compounds, about 2,200 (0.71%) showed an effect of 50% or more. Effects have a minus sign here. The list shows a part of the results.
The molecules below were run against human ether-à-go-go-related gene (hERG) potassium channel (human, UniProt Q12809) (assay: primary screen, population patch clamp on CHO cells stably expressing hERG).
Sequence of human ether-à-go-go-related gene (hERG) potassium channel (Q12809 whole entry, looked up): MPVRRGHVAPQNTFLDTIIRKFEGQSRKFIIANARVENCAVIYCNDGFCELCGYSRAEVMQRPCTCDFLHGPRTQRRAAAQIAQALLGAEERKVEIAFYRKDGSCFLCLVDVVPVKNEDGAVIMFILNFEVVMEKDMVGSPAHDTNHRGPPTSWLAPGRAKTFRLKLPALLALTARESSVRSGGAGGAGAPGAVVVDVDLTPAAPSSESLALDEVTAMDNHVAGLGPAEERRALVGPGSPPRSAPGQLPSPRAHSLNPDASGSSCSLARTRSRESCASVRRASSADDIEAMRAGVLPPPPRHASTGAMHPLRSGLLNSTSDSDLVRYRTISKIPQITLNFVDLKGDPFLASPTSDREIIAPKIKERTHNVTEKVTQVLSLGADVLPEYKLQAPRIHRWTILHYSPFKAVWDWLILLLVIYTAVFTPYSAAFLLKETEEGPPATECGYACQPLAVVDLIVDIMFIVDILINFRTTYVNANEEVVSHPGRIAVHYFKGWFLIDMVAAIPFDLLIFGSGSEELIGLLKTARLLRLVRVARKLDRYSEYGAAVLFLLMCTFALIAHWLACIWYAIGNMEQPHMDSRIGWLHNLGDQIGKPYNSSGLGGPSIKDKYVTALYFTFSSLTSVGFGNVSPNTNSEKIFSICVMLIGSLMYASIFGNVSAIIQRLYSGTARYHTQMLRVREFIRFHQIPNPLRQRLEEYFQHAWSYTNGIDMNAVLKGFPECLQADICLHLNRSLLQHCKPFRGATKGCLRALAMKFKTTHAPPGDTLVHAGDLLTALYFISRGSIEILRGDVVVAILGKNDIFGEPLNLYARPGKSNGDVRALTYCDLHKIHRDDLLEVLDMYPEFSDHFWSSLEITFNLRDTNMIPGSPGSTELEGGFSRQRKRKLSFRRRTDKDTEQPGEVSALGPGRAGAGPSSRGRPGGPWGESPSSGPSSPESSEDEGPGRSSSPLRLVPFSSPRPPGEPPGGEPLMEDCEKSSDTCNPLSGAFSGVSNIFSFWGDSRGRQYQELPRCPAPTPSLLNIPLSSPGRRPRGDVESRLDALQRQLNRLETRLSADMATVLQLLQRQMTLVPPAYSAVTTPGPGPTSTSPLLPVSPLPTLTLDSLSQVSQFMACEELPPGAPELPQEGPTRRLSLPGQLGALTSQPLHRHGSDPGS

| SMILES | hERG current change (%, negative = inhibition) at 1uM [%] |
| --- | --- |
| COc1cc(C)ccc1OCCCON1C(=O)CCC1=O | 8.74 |
| CCc1ccc(C(C)(O)C(CN2CCOCC2)c2ccccc2)cc1.Cl (centres unmarked) | 8.26 |
| COC(=O)c1ccc(C)c(NS(=O)(=O)c2ccc3c(c2)OCCO3)c1 | 0.932 |
| CCNC(=O)CC1C(=O)N(c2cccc(C)c2)C(=O)N1CCC(C)C (centres unmarked) | -15.2 |
| O=C(NC(Cc1c[nH]c2ccccc12)C(=O)O)/C(=C\c1ccc2c(c1)OCO2)NC(=O)c1ccccc1 (centres unmarked) | 3.23 |
| CN(C)C=O.COc1ccc(NC(=O)COC(=O)c2cc(OC)c(OC)cc2NC(=O)c2ccco2)cc1OC | 15.6 |
| COc1ccc(Nc2ncnc3c2cnn3-c2ccccc2)cc1OC | 2.27 |
| CCc1ccccc1NC(=S)/N=C(\N)Nc1nc(C)c2cc(C)ccc2n1 | -1.21 |
| COc1cc(C)ccc1OCCOCCOc1cc(C)c(C)cc1Br | 9.18 |
| COc1ccc(OC)c(/C=N/NC(=O)c2csc3ccccc23)c1 | 4.56 |
| Nc1nc2c(ncn2C2C[C@H](O)[C@@H](CO)O2)c(=O)[nH]1 (some centres unmarked) | 9.96 |
| CC(=O)C(Cc1cnc(Cl)s1)(Cc1cnc(Cl)s1)C(C)=O | 1.44 |
| O=C(NCC(=O)N(c1cccc(F)c1)C(C(=O)NC1CCCC1)c1ccncc1)c1ccco1 (centres unmarked) | 8.29 |
| Cc1ccccc1OCC(=O)Nc1cccc(NC(=O)c2ccco2)c1 | 8.48 |
| COc1ccc(CCNC(=O)C2CCN(C(=O)c3cccc(Cl)c3)CC2)cc1OC | 19.3 |
| Cc1ccc(NC(=O)c2ccc(CN3CCc4ccccc4C3)cc2)cc1 | 11.9 |
| Cc1ccc(CCC(=O)Nc2ncc(Cc3cc(Cl)ccc3Cl)s2)o1 | 12.4 |
| CCCS(=O)(=O)N1CCC(C(=O)NCC2CCCO2)CC1 (centres unmarked) | -3.78 |
| CC(=O)NC(Cc1c[nH]c2ccccc12)C(=O)N1CCN(S(=O)(=O)c2ccccc2)CC1 (centres unmarked) | 15 |
| CC(C)(C)NC(=O)c1cc(C(C)(C)C)c(O)c(C(C)(C)C)c1 | 7.47 |
| CN(CC(=O)Nc1ccccc1Cl)C(=O)COC(=O)CSc1ccc(F)cc1 | -15.6 |
| CCCCCCCCCCCC(=O)N1CC(=O)NC(=O)C1 | 10.3 |
| Cc1ccc2c(c1)C(=O)C(=O)N2CC1COc2ccccc2O1 (centres unmarked) | 10 |

| SMILES | hERG current change (%, negative = inhibition) at 1uM [%] |
| --- | --- |
| Cc1cc(C)cc(OCCCCn2cncn2)c1 | 13.5 |
| COc1ccc2nc(C(F)(F)C(F)(F)F)c(C#N)c(N)c2c1 | 11.9 |
| CCOC(=O)C1CCN(Cc2cn[nH]c2-c2ccc(C)cc2)CC1 | -23.6 |
| CC(C)Oc1ccc(S(=O)(=O)N2CCOCC2)cc1NC(=O)CC1OC(=O)c2ccccc21 (centres unmarked) | 12.4 |
| Cc1nc(C2COc3ccccc3O2)sc1C(=O)O (centres unmarked) | 5.63 |
| Nc1nc(NCCOCCO)nc(NC2CCCCC2)c1[N+](=O)[O-] | 7.16 |
| OCCC1CN(C2CSCCSC2)CCN1Cc1ccccc1 (centres unmarked) | 13.2 |
| Cc1ccc(Cl)cc1N(CC(=O)N1CCOCC1)S(C)(=O)=O | 6.86 |
| COC(=O)c1ccc(C(=O)N(C)C2CCCN(Cc3ccccc3F)C2)nc1 (centres unmarked) | 17.2 |
| CCN(c1ccc(OC)cc1)S(=O)(=O)c1nnc(NC(=O)CC(C)C)s1 | 11.7 |
| CC1=CC(C)(C)NC(=S)N1c1cccc2cc(S(=O)(=O)O)ccc12 | 19.5 |
| COc1ccc(CCNC(=O)C(=O)c2cn(CC(=O)N3CCOCC3)c3ccccc23)cc1 | 6.84 |
| O=[N+]([O-])c1ccc(OCCn2cncn2)cc1 | 13.6 |
| O=Cc1cnc(N2CCN(Cc3ccccc3)CC2)s1 | 12.4 |
| Cc1ccc(C(=O)CSc2nnc(COc3cccc4cccnc34)o2)cc1 | 11.1 |
| Cc1sc2ncnc(NCc3ccco3)c2c1C | -3.17 |
| COC(=O)c1ccc(Cn2nc(-c3cc(C)ccc3C)ccc2=O)cc1 | 6.81 |
| O=C(Cn1c2ccccc2c2nc3n(c(=O)c21)CCS3)N1CCCC1 | 13.7 |
| Cc1ccc(C)c(N/C=C(\C#N)c2nc3ccccc3o2)c1 | 7.76 |
| CC1CCCCC12NC(=O)N(Cc1cc(=O)n3ccsc3n1)C2=O (centres unmarked) | 3.7 |
| Cc1cc(S(=O)(=O)NCC(C)C)ccc1OCC(=O)N1CCN(Cc2ccccc2)CC1 | 4.16 |
| C/C(=N/NC(=O)c1ccccn1)c1ccco1 | 2.75 |
| CN(C(=O)COC(=O)c1cc(=O)[nH]c2ccccc12)c1c(N)n(Cc2ccccc2)c(=O)[nH]c1=O | 0.122 |

| SMILES | hERG current change (%, negative = inhibition) at 1uM [%] |
| --- | --- |
| O=C(Cc1ccccc1)N1CCN(Cc2ccccn2)CC1 | 6.39 |
| Cc1c(C(=O)Nc2cnccn2)oc2ccccc12 | 10.1 |
| O=C(/C(=N/N=C/c1ccc(O)c(O)c1)c1ccccc1)c1ccccc1 | 3.35 |
| Cn1c(SCc2ccccn2)nc2c1c(=O)[nH]c(=O)n2C | 7.25 |
| O=C(O)c1ccc(-c2noc(-c3ccccc3F)n2)cc1 | 25.3 |
| CC(=O)c1ccc(OCC(O)CN2CCN(S(=O)(=O)c3c(C)cc(C)cc3C)CC2)cc1.O=C(O)C(=O)O (centres unmarked) | 5.85 |
| CCn1c(=O)cc(SCC(=O)NCc2ccccn2)c2ccccc21 | 13.3 |
| COc1ccccc1N(C)S(=O)(=O)c1ccc(Cl)c(C(=O)NCc2cccnc2)c1 | 7.53 |
| CNC(=S)NNC(=O)c1ccccc1Cl | 13.5 |
| O=C(c1nc2ccc(Cl)cn2c1CN1CCC(O)CC1)N1CCc2ccccc2C1 | 3.61 |
| O=c1cc(C(F)(F)F)nc(-c2cccnc2)[nH]1 | 13.5 |
| Cc1cccc(C)c1NC(=O)C(c1ccc([N+](=O)[O-])cc1)N1CCCCC1 (centres unmarked) | 2.99 |
| O=C(O/N=C/c1ccc2c(c1)OCO2)c1ccc([N+](=O)[O-])cc1 | 16.2 |
| CC1CN(C(=O)COC(=O)Cc2ccc(Cl)cc2)CC(C)O1 (centres unmarked) | 1.15 |
| Cc1ccc(CSc2nnc(-c3cccnc3)o2)cc1 | 10.9 |
| CCCCn1c(N)c(N(CCC(C)C)C(=O)c2oc3ccc(OCC)cc3c2C)c(=O)[nH]c1=O | 5.54 |
| COc1ccccc1S(=O)(=O)n1cc(Cc2ccccc2)c(N)n1 | 1.59 |
| COc1cccc(-c2nc3sc4c(c3c(=O)[nH]2)CCCCC4)c1 | 21.4 |
| CSc1cccc(NC(=S)N(C(C)C)C(C)c2ccccn2)c1 (centres unmarked) | 15.7 |
| CC1(OC(=O)C2CCCC2)C(=O)C=C2C=C(c3ccsc3)N(C(CO)CO)C=C2C1=O (centres unmarked) | -7.11 |
| O=C(NC1CC1)c1ccc(S(=O)(=O)NC2CCCCCC2)cc1 | 2.1 |
| CC(C)[C@H](NS(=O)(=O)c1ccc2c(c1)OCCO2)C(=O)OCC(=O)Nc1ccccc1Cl | 12.9 |
| O=C(Nc1ccc(Cn2cccn2)cc1)c1ccc(COc2ccccc2Br)cc1 | 14.1 |

| SMILES | hERG current change (%, negative = inhibition) at 1uM [%] |
| --- | --- |
| COc1cccc(C(=O)Nc2nnc(C3CCCO3)s2)c1 (centres unmarked) | 5.56 |
| CC(C)CCNC(=O)c1ccc2c(c1)ncn2C1CCCC1 | -9.77 |
| Cc1ccc(-c2cnc(NCc3cc4c(cc3[N+](=O)[O-])OCO4)n2C)cc1C | 12.5 |
| COc1cccc([C@@H]2Oc3ccc(Br)cc3C(=O)[C@H]2OC(=O)NC2CCCC2)c1 | 12.3 |
| COc1ccc(/C=C2/C(=O)ON=C2C)cc1Cl | 26.8 |
| COc1ccc(C(=O)O)cc1S(=O)(=O)Nc1ccccc1C(=O)NCc1ccc2c(c1)OCO2 | 12.6 |
| CCOc1cc(-c2noc(CCCC(N)=O)n2)cc(Br)c1OC | 5.46 |
| COc1ccc(OC)c(-n2c(-c3ccc(O)cc3O)n[nH]c2=S)c1 | 12.7 |
| CCOc1ccc(C(=O)Nn2cnnc2)cc1OCC | -23.6 |
| COc1ccc([N+](=O)[O-])cc1Nc1ncnc2ccccc12 | 6.32 |
| Cc1nn(CCOc2cccc(Br)c2)c(C)c1[N+](=O)[O-] | 6 |
| COc1ccc(N(CC(=O)Nc2ccccc2C(=O)NCC(C)C)S(C)(=O)=O)cc1 | 9.87 |
| COCC1OS(=O)(=O)NC(CC(=O)SC(C)(C)C)C1C (centres unmarked) | 9.98 |
| COC(=O)Nc1nnc(SCc2ccc(C)cc2)s1 | 16 |
| Cn1c(=O)c2c(nc(Br)n2Cc2nnc(N)s2)n(C)c1=O | 6.35 |
| COc1ccc(CCN)cc1O.Cl | 15.1 |
| CC(=O)N(C1CC(C)C(C#N)(C#N)C1(C#N)C#N)N(C)C (centres unmarked) | -10.5 |
| COc1ccc(N(CC(=O)Nc2cccc3ccccc23)S(C)(=O)=O)cc1 | 8.23 |
| Cc1ccc(S(=O)(=O)/C(=C/Cl)NC(=O)c2ccccc2)cc1 | 12.1 |
| Cc1cccc(N2CCN(C(=O)c3ccc(Cl)c(S(=O)(=O)N4CCc5ccccc5C4)c3)CC2)c1C | 11.7 |

From publication PMC4336329 (PLoS ONE, 2015)
